Reference: patent US20040038212A1 (Chugai, published 2004)

Assays:
Assay in all cases: GST pull-down on glutathione-Sepharose beads, SDS-PAGE, BAS2000
[1] = target: T1, full-length ALEX1 protein, in vitro translated and [^35S]-methionine-labeled (human, UniProt Q9P291 1-453, [^35S]-methionine label (in vitro translation in rabbit reticulocyte lysate))
T1 construct: Full-length, 453 amino acids; also called [^35S]ALEX1; human ALEX1 protein
T1 sequence: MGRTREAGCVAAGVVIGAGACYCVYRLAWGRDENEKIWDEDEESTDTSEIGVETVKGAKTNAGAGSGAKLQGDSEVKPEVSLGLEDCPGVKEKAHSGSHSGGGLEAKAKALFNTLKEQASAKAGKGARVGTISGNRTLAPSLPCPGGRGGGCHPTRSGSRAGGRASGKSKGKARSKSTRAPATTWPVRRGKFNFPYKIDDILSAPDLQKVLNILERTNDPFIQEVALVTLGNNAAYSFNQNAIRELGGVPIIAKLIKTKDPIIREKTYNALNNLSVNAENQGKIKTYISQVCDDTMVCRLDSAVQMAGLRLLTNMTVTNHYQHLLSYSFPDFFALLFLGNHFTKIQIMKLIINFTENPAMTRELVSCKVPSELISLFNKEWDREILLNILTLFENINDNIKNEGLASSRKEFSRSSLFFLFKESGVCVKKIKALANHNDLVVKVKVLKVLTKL
Description: (§1) Interaction between ALEX1 and presenilin-1 (PS1) was investigated by pull-down assay. The large loop region of PS1 protruding into the cytoplasm reported to be the binding site with delta-catenin (PS1-CL: amino acid numbers 263-407 of PS-1 according to accession number L76517), and the N-terminal region (PS1-N: amino acid numbers 1-81 of PS-1 according to accession number L76517) as a negative control respectively were cloned into pGEX-5×-1 by PCR method, and were expressed in E. coli as GST fusion proteins. […] The mixture was centrifuged, unbound protein was discarded, and the beads were resuspended in 500 μl of binding buffer (20 mM Tris/Cl, pH 7.2 at 25° C., 140 mM NaCl, 0.1% Tween-20, 0.1 mM DTT, 4 mg/ml BSA and Complete™ Protease Inhibitor). In vitro-translated, [³⁵S]methionine-labeled (Promega TNT reticulocyte lysate system) ALEX1 was added to the mixture and incubated for 2.5 h at 4° C. to form complexes. Instead of ALEX1, luciferase as a negative control, and delta-catenin (615-1225) and delta-catenin (826-1225) as positive controls were used for same experiments. The beads were washed five times in wash buffer (20 mM Tris/Cl, pH 7.2 at 25° C., 140 mM NaCl, 0.1% Tween-20 and Complete Protease Inhibitor), resuspended in 40 μl of 2×SSC sample buffer and incubated at 90° C. A half of the eluted protein was resolved by SDS-PAGE (4-20%) and visualized by BAS2000.

[2] = target: T2, delta-catenin (826-1225), in vitro translated and [^35S]methionine-labeled (UniProt Q9UQB3 826-1225, [^35S]methionine label)
T2 construct: range 826-1225; Positive control
T2 sequence (looked up): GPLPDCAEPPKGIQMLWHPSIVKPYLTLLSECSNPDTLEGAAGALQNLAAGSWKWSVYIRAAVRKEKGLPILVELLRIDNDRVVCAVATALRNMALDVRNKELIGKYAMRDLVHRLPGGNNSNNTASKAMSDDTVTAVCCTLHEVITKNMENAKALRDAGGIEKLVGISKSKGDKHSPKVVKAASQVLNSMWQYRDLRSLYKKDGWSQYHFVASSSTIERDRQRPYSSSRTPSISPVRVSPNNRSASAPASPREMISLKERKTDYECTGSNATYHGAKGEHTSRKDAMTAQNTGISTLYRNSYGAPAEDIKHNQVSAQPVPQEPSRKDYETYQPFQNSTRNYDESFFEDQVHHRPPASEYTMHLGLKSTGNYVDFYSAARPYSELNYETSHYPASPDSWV
Description: as §1

[3] = target: T3, delta-catenin (615-1225), in vitro translated and [^35S]methionine-labeled (UniProt Q9UQB3 615-1225, [^35S]methionine label)
T3 construct: range 615-1225; Positive control
T3 sequence (looked up): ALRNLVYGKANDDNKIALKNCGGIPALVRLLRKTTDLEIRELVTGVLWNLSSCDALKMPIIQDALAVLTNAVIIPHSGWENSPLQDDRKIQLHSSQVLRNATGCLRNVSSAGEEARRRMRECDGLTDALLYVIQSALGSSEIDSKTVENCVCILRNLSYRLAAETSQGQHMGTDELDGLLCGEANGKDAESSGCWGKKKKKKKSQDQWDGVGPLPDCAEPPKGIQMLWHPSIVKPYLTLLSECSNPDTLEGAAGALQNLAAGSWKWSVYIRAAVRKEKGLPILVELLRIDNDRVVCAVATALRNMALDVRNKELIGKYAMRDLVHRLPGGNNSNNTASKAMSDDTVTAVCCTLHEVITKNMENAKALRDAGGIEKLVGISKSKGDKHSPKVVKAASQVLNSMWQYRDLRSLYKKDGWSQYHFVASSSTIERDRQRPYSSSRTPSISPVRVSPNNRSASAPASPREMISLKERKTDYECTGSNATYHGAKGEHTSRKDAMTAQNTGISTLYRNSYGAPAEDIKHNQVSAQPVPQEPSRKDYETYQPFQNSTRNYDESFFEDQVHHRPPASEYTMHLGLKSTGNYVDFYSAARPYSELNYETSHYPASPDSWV
Description: as §1

Measured: binding result

B1: GST (other)
chain: not shown
notes: Control, immobilized on glutathione-Sepharose beads
no binding: all assays above
